Test results taken from the supplement of paper PMC8728848.
This is one part of the list.

Assays:
Test in all cases: glycan array binding signal (z-score within array); higher = stronger binding
Conditions in all cases: glycan notation: IUPAC condensed, linker removed
Gal(a1-3)GalNAc = target: Gal(a1-3)GalNAc
In short: (§1)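 Negative Z-scores can be read as non-binding. The Z-score is calculated within each array and then averaged across arrays of one protein sequence at different concentrations or buffers and across linkers. Arrays, 3228 in all, were curated from the Consortium for Functional Glycomics database and kept only where the protein sequence was available.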

[1] = target: Gal(a1-3)[Gal(a1-4)]Gal(b1-4)GlcNAc
In short: as §1

[2] = target: Gal(a1-4)Gal(b1-3)GlcNAc(b1-2)Man(a1-3)[Gal(a1-4)Gal(b1-3)GlcNAc(b1-2)Man(a1-6)]Man(b1-4)GlcNAc(b1-4)GlcNAc
In short: as §1

Gal(a1-4)Gal(b1-4)Glc = target: Gal(a1-4)Gal(b1-4)Glc
In short: as §1

Gal(a1-4)Gal(b1-4)GlcNAc = target: Gal(a1-4)Gal(b1-4)GlcNAc
In short: as §1

[3] = target: Gal(a1-4)Gal(b1-4)GlcNAc(b1-2)Man(a1-3)[Gal(a1-4)Gal(b1-4)GlcNAc(b1-2)Man(a1-6)]Man(b1-4)GlcNAc(b1-4)GlcNAc
In short: as §1

[4] = target: Gal(a1-4)Gal(b1-4)GlcNAc(b1-3)Gal(b1-4)Glc
In short: as §1

Gal(a1-4)GlcNAc = target: Gal(a1-4)GlcNAc
In short: as §1

Gal(a1-6)Glc = target: Gal(a1-6)Glc
In short: as §1

Gal(b1-2)Gal = target: Gal(b1-2)Gal
In short: as §1

Gal(b1-3)Gal = target: Gal(b1-3)Gal
In short: as §1

Gal(b1-3)Gal(b1-4)GlcNAc = target: Gal(b1-3)Gal(b1-4)GlcNAc
In short: as §1

Gal(b1-3)GalNAc = target: Gal(b1-3)GalNAc
In short: as §1

[5] = target: Gal(b1-3)GalNAc(a1-3)[Fuc(a1-2)]Gal(b1-4)Glc
In short: as §1

[6] = target: Gal(b1-3)GalNAc(a1-3)[Fuc(a1-2)]Gal(b1-4)GlcNAc
In short: as §1

Gal(b1-3)GalNAc(b1-3)Gal = target: Gal(b1-3)GalNAc(b1-3)Gal
In short: as §1

[7] = target: Gal(b1-3)GalNAc(b1-3)Gal(a1-4)Gal(b1-4)Glc
In short: as §1

[8] = target: Gal(b1-3)GalNAc(b1-4)Gal(b1-4)Glc
In short: as §1

[9] = target: Gal(b1-3)GalNAc(b1-4)[Neu5Ac(a2-3)]Gal(b1-4)Glc
In short: as §1

Gal(b1-3)GlcNAc = target: Gal(b1-3)GlcNAc
In short: as §1

[10] = target: Gal(b1-3)GlcNAc(a1-3)Gal(b1-4)GlcNAc
In short: as §1

[11] = target: Gal(b1-3)GlcNAc(a1-6)Gal(b1-4)GlcNAc
In short: as §1

Gal(b1-3)GlcNAc(b1-2)Man = target: Gal(b1-3)GlcNAc(b1-2)Man
In short: as §1

[12] = target: Gal(b1-3)GlcNAc(b1-2)Man(a1-3)[Gal(b1-3)GlcNAc(b1-2)Man(a1-6)]Man(b1-4)GlcNAc(b1-4)GlcNAc
In short: as §1

[13] = target: Gal(b1-3)GlcNAc(b1-2)Man(a1-3)[Gal(b1-3)GlcNAc(b1-2)Man(a1-6)]Man(b1-4)GlcNAc(b1-4)[Fuc(a1-6)]GlcNAc
In short: as §1

[14] = target: Gal(b1-3)GlcNAc(b1-2)Man(a1-3)[GlcNAc(b1-4)][Gal(b1-3)GlcNAc(b1-2)Man(a1-6)]Man(b1-4)GlcNAc(b1-4)GlcNAc
In short: as §1

[15] = target: Gal(b1-3)GlcNAc(b1-2)[Gal(b1-3)GlcNAc(b1-6)]Man(a1-6)[Gal(b1-3)GlcNAc(b1-2)Man(a1-3)]Man(b1-4)GlcNAc(b1-4)GlcNAc
In short: as §1

[16] = target: Gal(b1-3)GlcNAc(b1-3)Gal(b1-3)GlcNAc
In short: as §1

[17] = target: Gal(b1-3)GlcNAc(b1-3)Gal(b1-4)Glc
In short: as §1

[18] = target: Gal(b1-3)GlcNAc(b1-3)Gal(b1-4)GlcNAc
In short: as §1

[19] = target: Gal(b1-3)GlcNAc(b1-3)Gal(b1-4)GlcNAc(b1-2)Man(a1-3)[Gal(b1-3)GlcNAc(b1-3)Gal(b1-4)GlcNAc(b1-2)Man(a1-6)]Man(b1-4)GlcNAc(b1-4)GlcNAc
In short: as §1

[20] = target: Gal(b1-3)GlcNAc(b1-3)Gal(b1-4)GlcNAc(b1-2)[Gal(b1-3)GlcNAc(b1-3)Gal(b1-4)GlcNAc(b1-6)]Man(a1-6)[Gal(b1-3)GlcNAc(b1-3)Gal(b1-4)GlcNAc(b1-2)Man(a1-3)]Man(b1-4)GlcNAc(b1-4)[Fuc(a1-6)]GlcNAc
In short: as §1

[21] = target: Gal(b1-3)GlcNAc(b1-3)Gal(b1-4)GlcNAc(b1-3)Gal(b1-4)GlcNAc(b1-2)[Gal(b1-3)GlcNAc(b1-3)Gal(b1-4)GlcNAc(b1-3)Gal(b1-4)GlcNAc(b1-6)]Man(a1-6)[Gal(b1-3)GlcNAc(b1-3)Gal(b1-4)GlcNAc(b1-3)Gal(b1-4)GlcNAc(b1-2)Man(a1-3)]Man(b1-4)GlcNAc(b1-4)[Fuc(a1-6)]GlcNAc
In short: as §1

[22] = target: Gal(b1-3)GlcNAc(b1-3)Gal(b1-4)GlcNAc(b1-6)[Gal(b1-3)GlcNAc(b1-3)]Gal(b1-4)Glc
In short: as §1

[23] = target: Gal(b1-3)GlcNAc(b1-3)Gal(b1-4)[Fuc(a1-3)]GlcNAc
In short: as §1

[24] = target: Gal(b1-3)GlcNAc(b1-3)Gal(b1-4)[Fuc(a1-3)]GlcNAc(b1-6)[Gal(b1-3)GlcNAc(b1-3)]Gal(b1-4)Glc
In short: as §1

[25] = target: Gal(b1-3)GlcNAc(b1-3)GalNAc
In short: as §1

[26] = target: Gal(b1-3)GlcNAc(b1-6)Gal(b1-4)GlcNAc
In short: as §1

B1: DC-ASGPR S+GEE (Homo sapiens) (protein)
chain: MTRTYENFQYLENKVKVQGFKNGPLPLQSLLQRLRSGPCHLLLSLGLGLLLLVIICVVGFQNSKFQRDLVTLRTDFSNFTSNTVAEIQALTSQGSSLEETIASLKAEVEGFKQERQAVHSEMLLRVQQLVQDLKKLTCQVATINNNGEEASTEGTCCPVNWVEHQDSCYWFSHSGMSWAEAEKYCQLKNAHLVVINSREEQNFVQKYLGSAYTWMGLSDPEGAWKWVDGTDYATGFQNWKPGQPDDWQGHGLGGGEDCAHFHPDGRWNDDVCQRPYHWVCEAGLGQTSQESH
glycan array binding signal (z-score) (Gal(a1-3)GalNAc): -0.118
glycan array binding signal (z-score) [1]: -0.299
glycan array binding signal (z-score) [2]: -0.409
glycan array binding signal (z-score) (Gal(a1-4)Gal(b1-4)Glc): -0.124
glycan array binding signal (z-score) (Gal(a1-4)Gal(b1-4)GlcNAc): -0.216
glycan array binding signal (z-score) [3]: -0.323
glycan array binding signal (z-score) [4]: -0.361
glycan array binding signal (z-score) (Gal(a1-4)GlcNAc): -0.343
glycan array binding signal (z-score) (Gal(a1-6)Glc): -0.264
glycan array binding signal (z-score) (Gal(b1-2)Gal): -0.325
glycan array binding signal (z-score) (Gal(b1-3)Gal): -0.306
glycan array binding signal (z-score) (Gal(b1-3)Gal(b1-4)GlcNAc): -0.245
glycan array binding signal (z-score) (Gal(b1-3)GalNAc): -0.328
glycan array binding signal (z-score) [5]: -0.347
glycan array binding signal (z-score) [6]: -0.35
glycan array binding signal (z-score) (Gal(b1-3)GalNAc(b1-3)Gal): -0.24
glycan array binding signal (z-score) [7]: 1.86
glycan array binding signal (z-score) [8]: -0.19
glycan array binding signal (z-score) [9]: 1.47
glycan array binding signal (z-score) (Gal(b1-3)GlcNAc): 0.304
glycan array binding signal (z-score) [10]: -0.339
glycan array binding signal (z-score) [11]: -0.198
glycan array binding signal (z-score) (Gal(b1-3)GlcNAc(b1-2)Man): -0.291
glycan array binding signal (z-score) [12]: -0.319
glycan array binding signal (z-score) [13]: -0.359
glycan array binding signal (z-score) [14]: -0.329
glycan array binding signal (z-score) [15]: -0.442
glycan array binding signal (z-score) [16]: -0.281
glycan array binding signal (z-score) [17]: -0.321
glycan array binding signal (z-score) [18]: -0.38
glycan array binding signal (z-score) [19]: -0.06
glycan array binding signal (z-score) [20]: 0.397
glycan array binding signal (z-score) [21]: 0.346
glycan array binding signal (z-score) [22]: -0.341
glycan array binding signal (z-score) [23]: -0.321
glycan array binding signal (z-score) [24]: -0.507
glycan array binding signal (z-score) [25]: -0.25
glycan array binding signal (z-score) [26]: -0.377
